{"source": "the antibiotic and cytotoxicity screens of Wong et al. (2023)", "note": "The other results are listed elsewhere or left out.", "data": [{"test_system": "HepG2", "experiment": "cytotoxicity call (relative viability < 0.9)", "settings": "10 µM", "values": [{"smiles": "O=C(O)CSCC(=O)N[C@H]1CCSC1=O", "cytotoxicity call": "inactive"}, {"smiles": "COC(=O)C[C@H]1CC[C@H]2[C@@H](COC[C@H](O)CN2S(=O)(=O)c2ccc(F)cc2)O1", "cytotoxicity call": "inactive"}, {"smiles": "C[C@@H]1COC(=O)[C@H](Cc2ccc(F)cc2)CC=CC[C@H](CC(=O)N(CCO)Cc2ccccc2)C(=O)N1", "cytotoxicity call": "inactive"}, {"smiles": "O=c1cc[nH]c(=O)[nH]1", "cytotoxicity call": "inactive"}, {"smiles": "COc1ccccc1-c1ccc2c(c1)O[C@@H](CN(C)CC1CCOCC1)[C@@H](C)CN([C@@H](C)CO)S2(=O)=O", "cytotoxicity call": "inactive"}, {"smiles": "C[C@H](CO)N1C[C@H](C)[C@@H](CN(C)C(=O)Nc2ccc(C(F)(F)F)cc2)Oc2c(NS(=O)(=O)c3ccc(F)cc3)cccc2C1=O", "cytotoxicity call": "inactive"}, {"smiles": "Cn1nc(CCO)cc1C(F)(F)F", "cytotoxicity call": "inactive"}, {"smiles": "Cc1noc(C)c1NC(=O)N(C)C[C@@H]1OCCCC[C@H](C)Oc2ccc(NC(=O)Nc3ccc(C(F)(F)F)cc3)cc2C(=O)N([C@@H](C)CO)C[C@@H]1C", "cytotoxicity call": "active"}, {"smiles": "C[C@@H]1CCC[C@H](C)N1c1nn(C)c(=O)[nH]1", "cytotoxicity call": "inactive"}, {"smiles": "C[C@@H]1CN([C@H](C)CO)C(=O)c2cc(NC(=O)Nc3ccc(C(F)(F)F)cc3)ccc2O[C@@H](C)CCCCO[C@H]1CN(C)Cc1ccccc1", "cytotoxicity call": "active"}, {"smiles": "Cc1noc(C)c1NC(=O)N[C@H]1CC[C@H](CC(=O)N2CCN(C)CC2)O[C@@H]1CO", "cytotoxicity call": "inactive"}, {"smiles": "C[C@@H]1CCCCO[C@@H](CN(C)Cc2ccc(C(=O)O)cc2)[C@@H](C)CN([C@H](C)CO)C(=O)c2cc(NC(=O)CCC(F)(F)F)ccc2O1", "cytotoxicity call": "inactive"}, {"smiles": "C[C@H]1CN([C@@H](C)CO)C(=O)Cc2cc(NC(=O)Cn3cnnn3)ccc2O[C@H]1CN(C)C(=O)Nc1ccc(C(F)(F)F)cc1", "cytotoxicity call": "inactive"}]}]}
